The values below come from PMC4336329 (PLoS ONE, 2015).

The whole screen tested about 310,000 compounds, of which about 2,200 (0.71%) showed an effect of 50% or more. Effects have a minus sign here. The list shows a part of the results.

Chain of human ether-à-go-go-related gene (hERG) potassium channel (Q12809 whole entry, looked up): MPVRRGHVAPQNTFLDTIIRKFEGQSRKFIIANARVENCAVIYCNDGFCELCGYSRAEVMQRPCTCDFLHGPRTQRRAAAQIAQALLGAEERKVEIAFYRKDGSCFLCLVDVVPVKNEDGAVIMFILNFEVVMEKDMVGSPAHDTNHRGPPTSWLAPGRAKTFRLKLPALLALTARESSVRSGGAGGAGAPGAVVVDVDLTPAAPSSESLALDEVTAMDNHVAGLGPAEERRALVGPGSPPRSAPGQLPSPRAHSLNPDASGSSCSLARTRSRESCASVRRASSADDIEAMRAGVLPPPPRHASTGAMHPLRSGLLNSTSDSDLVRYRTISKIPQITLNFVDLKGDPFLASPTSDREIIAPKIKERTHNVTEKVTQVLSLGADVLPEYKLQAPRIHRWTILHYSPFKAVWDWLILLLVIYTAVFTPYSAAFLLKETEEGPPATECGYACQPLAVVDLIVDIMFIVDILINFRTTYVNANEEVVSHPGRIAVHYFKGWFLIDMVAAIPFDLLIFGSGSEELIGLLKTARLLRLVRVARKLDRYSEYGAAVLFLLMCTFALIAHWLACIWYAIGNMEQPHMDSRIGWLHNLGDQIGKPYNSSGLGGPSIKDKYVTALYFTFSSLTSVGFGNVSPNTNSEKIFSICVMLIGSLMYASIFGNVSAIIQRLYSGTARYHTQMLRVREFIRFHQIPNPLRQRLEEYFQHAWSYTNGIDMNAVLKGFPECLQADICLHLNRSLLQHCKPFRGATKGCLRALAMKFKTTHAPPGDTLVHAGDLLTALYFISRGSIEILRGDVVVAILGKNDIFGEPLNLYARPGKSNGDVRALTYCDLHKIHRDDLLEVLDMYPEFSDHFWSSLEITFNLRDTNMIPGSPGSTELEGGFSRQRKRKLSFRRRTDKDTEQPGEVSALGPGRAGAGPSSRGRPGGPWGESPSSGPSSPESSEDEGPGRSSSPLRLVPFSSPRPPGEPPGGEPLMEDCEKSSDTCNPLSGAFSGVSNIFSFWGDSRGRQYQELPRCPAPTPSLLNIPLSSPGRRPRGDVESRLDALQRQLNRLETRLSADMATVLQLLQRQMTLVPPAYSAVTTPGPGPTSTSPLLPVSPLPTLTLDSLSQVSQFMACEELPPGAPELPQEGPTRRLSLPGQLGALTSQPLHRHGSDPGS

The assay addresses human ether-à-go-go-related gene (hERG) potassium channel (human, UniProt Q12809). The assay is described as follows: primary screen, population patch clamp on CHO cells stably expressing hERG.
Turning to `Cc1ccc2c(C)c(C(=O)N3CCN(C4CCS(=O)(=O)C4)CC3)oc2c1C` (centres unmarked), the “hERG current change (%, negative = inhibition) at 1uM” value stood at 8.83%. Under `COCCn1c(=NC(=O)CSCC(=O)N2CCOCC2)sc2cc(C)ccc21` stands 5.17%; under `Cc1ccc(-c2nnn(Cc3nc4ccccc4s3)n2)cc1`, 6.93%; under `Cc1cccc2cc3c(N)c(C(=O)N4CCc5ccccc54)sc3nc12`, 10.8%. Under `CCN(CC)S(=O)(=O)c1ccc(N2CCOCC2)c(NC(=O)c2cc(C)cc(C)c2)c1` stands 0.146%. On to `CN1C[C@@H]2C(c3ccccc3)C3(c4ccccc4)CC2(C3)[C@H]1c1ccccc1` (some centres unmarked), for which the “hERG current change (%, negative = inhibition) at 1uM” value was -8.54%.

On to `CCCNC(=O)Cn1nc(C(F)(F)F)c2c1CCC2`, for which the “hERG current change (%, negative = inhibition) at 1uM” value is recorded as -0.429%. The figure for `COc1ccc(S(=O)(=O)N(CC(=O)NCc2ccco2)c2ccccc2OC)cc1` is -9.74%. Turning to `O=C(COc1cccc(F)c1)NNC(=O)Cc1ccc(S(=O)(=O)N2CCOCC2)s1`, the “hERG current change (%, negative = inhibition) at 1uM” value was 6.28%. On to `CCCn1c(N/N=C(C)\C=C\c2ccccc2)nc2c1c(=O)[nH]c(=O)n2C`, for which the “hERG current change (%, negative = inhibition) at 1uM” value worked out at 9.9%.

Regarding `COC(=O)C1=CN(Cc2ccc(OC)c(OC)c2)C=C(C(=O)OC)C1c1ccccc1F`, the “hERG current change (%, negative = inhibition) at 1uM” value was 14.7%. Regarding `Cc1nc2c(c3c1[nH]c1ccccc13)C(O)CC(C)(C)C2` (centres unmarked), the “hERG current change (%, negative = inhibition) at 1uM” value stood at 0.553%. Under `O=C(CCC1CCCCC1)NCCN1C2=NC[C@@H](Cc3ccccc3)N2C[C@H]1Cc1ccc(O)cc1` stands -0.771%; under `COc1ccccc1CNC(=O)CNCC1CCCO1.O=C(O)C(=O)O` (centres unmarked), -5.21%; under `Nn1c(SCC(=O)Nc2ccc3c(c2)OCO3)nnc1-c1ccc(Cl)cc1`, 4.19%. The figure for `Cc1cccc(NC(=O)C(C)OC(=O)c2ccccc2NS(=O)(=O)c2cc(C)c(C)c([N+](=O)[O-])c2)c1` (centres unmarked) is 11%; for `COc1ccc(CCNC(=O)C2CCN(S(=O)(=O)c3cccs3)CC2)cc1OC` it is 11%. Take `Cc1ccc(C(=O)NNC(=O)CSc2nnc3c(n2)[nH]c2ccc(F)cc23)cc1`: the “hERG current change (%, negative = inhibition) at 1uM” value was 6.52%.

Take `CC(C)CNS(=O)(=O)c1ccc(OCC(=O)Nc2ccc(F)cc2F)cc1`: the “hERG current change (%, negative = inhibition) at 1uM” value is 13.7%. `Cc1ccc(-n2c(O)c(C=Nc3ccccc3-c3n[nH]c(=S)[nH]c3=O)c3ccccc3c2=O)c(C)c1`: the “hERG current change (%, negative = inhibition) at 1uM” value worked out at 3.45%.

As for `COc1ccc(C(O)P(=O)(Oc2ccccc2)Oc2ccccc2)cc1` (centres unmarked), the “hERG current change (%, negative = inhibition) at 1uM” value is listed as 14.6%. With `O=S1(=O)c2ccccc2N=NN1Cc1ccc(Cl)c(Cl)c1`, the “hERG current change (%, negative = inhibition) at 1uM” value is given as 5.49%. Regarding `COc1cccc(C2=CC(c3ccccc3)n3nnnc3N2)c1` (centres unmarked), the “hERG current change (%, negative = inhibition) at 1uM” value came out at 11%. The figure for `COc1ccc(-c2nc3ccccc3c(=O)n2CCOc2c(C)cccc2C)cc1` is 6.35%; for `COc1ccc(C(C)=O)cc1COC(=O)c1ccc(OCc2c(C)noc2C)cc1` it is 8.2%; for `CN(CCOc1ccc(Cl)cc1)CC(O)c1ccccc1.O=C(O)C(=O)O` (centres unmarked) it is -7.13%. Take `CCn1c(=O)n(CC)c2cc(N3CCCC3)c(NC(=O)c3ccccc3C)cc21`: the “hERG current change (%, negative = inhibition) at 1uM” value came out at 10.4%. The figure for `Cc1c(NC(=O)CSc2nnnn2C)c(=O)n(-c2ccccc2)n1C` is 3.14%; for `C=CCNC(=O)CN1CCC(O)(c2ccccc2)CC1` it is 8.21%; for `Cn1c(CCN2CCCCC2)nc2cc(NC(=O)COc3ccc([N+](=O)[O-])cc3)ccc21` it is -14.2%. Consider `Cc1cc(SCC(=O)NC2(C#N)CCCCC2)nc2c(C)cccc12`, for which the “hERG current change (%, negative = inhibition) at 1uM” value was determined as 8.51%.

Take `CCCc1cc(C(=O)Nc2ccc(C(=O)c3ccc(C)cc3)cc2)n(C)n1`: the “hERG current change (%, negative = inhibition) at 1uM” value is recorded as 5.73%. Regarding `Cc1cccc(Sc2c([N+](=O)[O-])ncn2C)c1`, the “hERG current change (%, negative = inhibition) at 1uM” value came to 18.2%. With `Cc1nnc(NC(=O)c2ccncc2)s1`, the “hERG current change (%, negative = inhibition) at 1uM” value is 12.7%.

Turning to `CCCn1c(SCC(=O)N2CCN(C(C)=O)CC2)nc2sc3c(c2c1=O)CCC3`, the “hERG current change (%, negative = inhibition) at 1uM” value is reported as -0.281%. The figure for `O=C(COC(=O)/C=C/c1cccc(F)c1)Nc1ncccn1` is 5.94%; for `O=C(NC1CCCCC1)c1cc(S(=O)(=O)N2CCCCC2)ccc1N1CCOCC1` it is 2.87%. Regarding `COC(=O)c1ccc2c(=O)sc(N3CCC(C(N)=O)CC3)nc2c1`, the “hERG current change (%, negative = inhibition) at 1uM” value came to 6.13%. On to `CCNC(=O)C12CCC(C)(C(=O)C1Br)C2(C)C` (centres unmarked), for which the “hERG current change (%, negative = inhibition) at 1uM” value is recorded as 16.8%. The figure for `CCN(CC)C(=O)COc1ccc(/C(C)=N/Nc2ncc(Cl)cc2Cl)cc1` is 10.1%; for `O=C(Cc1csc(N2CCOCC2)n1)N/N=C/c1ccccc1C(=O)O` it is 17.3%. With `O=C1CCCN1c1ccc(S(=O)(=O)Nc2ccc3c(c2)OCCO3)cc1`, the “hERG current change (%, negative = inhibition) at 1uM” value came out at 16.7%. The figure for `COc1ccc(CN2CC(=O)N3[C@H]4c5ccccc5OC[C@@H]4[C@H](c4ccccc4)[C@]3(C)C2=O)cc1` is 10.9%; for `COCCN1C(=O)c2oc3cc(C)c(C)cc3c(=O)c2C1c1cccc(O)c1` (centres unmarked) it is 16.6%; for `COc1ccc(NC(=O)c2cc([N+](=O)[O-])ccc2NC(=O)CNC2CCCCC2C)c(OC)c1` (centres unmarked) it is -78.8%.

Regarding `OCC(O)C1OC(Nc2ccc(Cl)cc2)C(O)C1O` (centres unmarked), the “hERG current change (%, negative = inhibition) at 1uM” value is listed as 9.71%. Under `Cc1ccc(NC(=O)c2nc(C)n(-c3ccc([N+](=O)[O-])cc3)n2)cc1` stands -0.188%; under `COc1ccc(C(=O)N2CCCC(c3ccccc3)=N2)cc1`, 6.92%; under `C/C=C/c1ccc2c(c1)OCO2`, 15%.

With `Cc1cccc(N2C(=O)CS/C2=N\NC(=O)c2ccc(Cl)cc2)c1C`, the “hERG current change (%, negative = inhibition) at 1uM” value stood at 8.56%. Under `Cc1ccc2c(c1)C(c1ccccc1)C(=O)O2` (centres unmarked) stands 5.4%. `C(=C1/CCCC2=C1Nc1ncnn1C2c1ccccc1)/c1ccccc1` (centres unmarked): the “hERG current change (%, negative = inhibition) at 1uM” value is -0.632%. The figure for `COc1ccc(-n2c(O)c(/C=C3\C=Nc4ccc(Br)cc43)c(=O)[nH]c2=O)c(OC)c1` is 8.82%; for `CS(=O)(=O)Nc1ccccc1C(=O)OCC(=O)NC1CC1` it is 12.2%.

In the case of `CCOC(=O)N(CC)c1ccc(C(O)(C(=O)OC)C(F)(F)F)cc1` (centres unmarked), the “hERG current change (%, negative = inhibition) at 1uM” value was 6.8%. Under `COC(=O)c1ccc(NC(=O)C(=O)c2cccn2C)cc1` stands 13.4%; under `CC12CCC(=O)N1C(C(=O)Nc1nc3c(F)cc(F)cc3s1)CS2` (centres unmarked), 2.27%. As for `COc1cc(C=C2C(=O)NC(=O)NC2=O)ccc1O`, the “hERG current change (%, negative = inhibition) at 1uM” value was 13.7%. The figure for `N#Cc1c(N(CCO)CCO)nc(N)c2c(N)nc3c(c12)CC(=O)N3Cc1cccs1` is -5.23%. Regarding `CCC1(C)Cc2ccccc2-c2nc(NCCO)n(-c3ccccc3)c(=O)c21` (centres unmarked), the “hERG current change (%, negative = inhibition) at 1uM” value amounted to 6.09%. The figure for `CN(CC(=O)Nc1ccc(Cl)c(C(F)(F)F)c1)C(=O)CNC(=O)C1CCCCC1` is 6.12%; for `CCCCC(=O)Nc1ccc(C(=O)Nc2cc(C(F)(F)F)ccc2Cl)cc1` it is 15.9%. On to `COc1cccc(NC(=S)NNC(=O)Cn2nc(C(F)F)cc2C(F)F)c1`, for which the “hERG current change (%, negative = inhibition) at 1uM” value amounted to 13%. On to `CCOC(=O)c1ccc(-n2c(CN3CCN(CC)CC3)nc3ccc([N+](=O)[O-])cc3c2=O)cc1`, for which the “hERG current change (%, negative = inhibition) at 1uM” value is recorded as -1.41%.

For the compound `CCCn1c(=O)c2[nH]c(-c3ccc(S(=O)(=O)O)cc3)nc2n(CCC)c1=O`, the “hERG current change (%, negative = inhibition) at 1uM” value turned out to be 8.92%. On to `O=C(CCN1CCOCC1)c1ccc(Cl)cc1`, for which the “hERG current change (%, negative = inhibition) at 1uM” value worked out at 11.1%. `O=C(c1nc2ccccc2s1)N1CCN(c2ccccn2)CC1`: the “hERG current change (%, negative = inhibition) at 1uM” value turned out to be 3.19%. Regarding `CCOC(=O)c1c(N)sc2c1CCCC2`, the “hERG current change (%, negative = inhibition) at 1uM” value is given as 15.1%. Under `O=C(NCc1ccccn1)C1CCN(S(=O)(=O)c2ccccc2F)CC1` stands 7.3%. In the case of `CN(CC(=O)Nc1ccc(Cl)c(C(F)(F)F)c1)C(=O)CCCNC(=O)c1ccc(Cl)cc1`, the “hERG current change (%, negative = inhibition) at 1uM” value came to 0.806%.

On to `COCCNC(=O)Cc1c(C)c2c(cc(C)c3c(C)coc32)oc1=O`, for which the “hERG current change (%, negative = inhibition) at 1uM” value is listed as -11.9%. As for `O=c1cc(-c2ccc(O)c(O)c2)oc2cc(O)cc(O)c12`, the “hERG current change (%, negative = inhibition) at 1uM” value is 17.6%. The figure for `O=C(Nc1ccccc1C(=O)NC1CCCC1)NC1CCCC1` is 6.29%; for `COc1ccc(OCCOc2cccc(C=C3C(=O)NC(=O)NC3=O)c2)cc1` it is 14.8%; for `Cc1ccc(-c2cc(C(=O)Nc3c(C)n(C)n(-c4ccccc4)c3=O)[nH]n2)c(O)c1C` it is 0.312%. On to `Cc1ccc(S(=O)(=O)Nc2nc(N)n(-c3ccccc3)n2)cc1`, for which the “hERG current change (%, negative = inhibition) at 1uM” value is 15.5%. The figure for `Cn1nc(C(=O)NC2CCCC2)c2ccccc2c1=O` is 18.7%; for `COC(=O)Cc1ccc(NC(=S)NCc2ccccc2OC)cc1` it is 20.5%; for `COc1cc(/C=N/NC(=O)Cn2cnc3c2c(=O)n(C)c(=O)n3C)ccc1O` it is 18%. As for `Cc1nc2ccccc2c2nc(NC(=O)Cc3ccccc3)nn12`, the “hERG current change (%, negative = inhibition) at 1uM” value is on record as -1.54%.

Take `CCOC(=O)CCCNC(=O)CSc1nnc(-c2ccccc2)c(-c2ccccc2)n1`: the “hERG current change (%, negative = inhibition) at 1uM” value was -3.06%. The figure for `CCc1cc(C(=O)c2ccc(OC)cc2)c(NC(=O)CN2CCCCC2)s1` is 7.6%; for `COc1cccc(/C=C2\NC(=O)NC2=O)c1O` it is 16.9%; for `COc1ccc(-c2csc(Nc3ccc(S(=O)(=O)Nc4cc(C)on4)cc3)n2)cc1` it is 0.675%. Take `CC(C)c1c(O)c2c(n(-c3ccccc3)c1=O)CCCC2`: the “hERG current change (%, negative = inhibition) at 1uM” value is on record as 10.6%. Turning to `COc1ccc(C(=O)NC2CCCN(Cc3ccccc3F)C2)c(OC)c1OC` (centres unmarked), the “hERG current change (%, negative = inhibition) at 1uM” value amounted to 4.49%.
